# Data as given in PubChem BioAssay AID1347073 (National Center for Advancing Translational Sciences (NCATS), 2019).
# In all, about 45,000 compounds went through this assay and about 200 (0.44%) were called active. Not shown: some 7% with an inconclusive outcome. Calls follow the shape of the dose curve; as a rule, active = well fitted activation curve with a large enough effect; inconclusive = small, poorly fitted or top-dose-only effect; inactive = no such curve, though single readings can be large or run the other way. The list shows a part of the results.
# Experiment: qHTS of TDP-43 Inhibitors: NCGC Sytravon Library Screen; also: nearly all actives have a fitted effect of over 55% in size; as to growth rescue (activation): 0% is about no effect
# Conditions: yeast TDP-43 toxicity rescue, BacTiter-Glo growth, 24 h; series mostly up to 46.1 µM; growth rescue (activation): at the top concentration
# Procedure, shortened: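 TDP-43-expressing yeast, pregrown in raffinose, seeded at OD600 0.02 in galactose medium with compound for 24 hr at 30 deg C. Growth read by BacTiter-Glo luminescence, so rescue of toxicity appears as activation.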
# Potency is read from the fitted curve at half-maximal effect.
Compound,growth rescue (activation),Potency
CC1(C(=O)NS(=O)(=O)c2ccccc2)CCN1C(=O)Cc1ccc(-c2ccccc2)cc1 (centres undefined),inactive: 11.3%,–
O=C(NC1=NCCS1)c1ccc(Cl)c(S(=O)(=O)N2CCCCCC2)c1,inactive: 18.4%,–
CCCS(=O)(=O)N1CCC(C(=O)NCCC(C)C)CC1,inactive: 1.61%,–
O=C(NCCOc1nc(N2CCCCC2)nc(N2CCCCC2)n1)Nc1ccccc1,inactive: -0.0925%,–
CC(C)(C)c1ccc(C(=O)N2CCC(C(=O)NC3CC3)CC2)cc1,inactive: 8.63%,–
CC(C)C(=O)Nc1cccc(C(=O)Nc2ccc(S(=O)(=O)Nc3nccs3)cc2)c1,inactive: 2.61%,–
CN(CC(=O)Nc1ccccc1C(F)(F)F)C(=O)COc1ncnc2sccc12,inactive: 10.4%,–
CC1=Nc2ccc(C)cc2/C1=C/c1c(N)n2oc(C)cc2nc1=O,inactive: 4.4%,–
COc1cc(N)c(Cl)cc1Cl,inactive: 2.02%,–
CC(C)CCn1c(=S)[nH]c2ncccc2c1=O,inactive: 18.6%,–
CCC1Oc2ccc(C)cc2N(CC(=O)NCCN2CCOCC2)C1=O (centres undefined),inactive: 1.78%,–
COc1cc(NC(=S)NCc2cccs2)cc(OC)c1,inactive: 21.9%,–
CCOC(=O)c1c(/N=C/N(C)C)sc(C)c1C,inactive: 30.2%,–
COc1ccc(C(=O)CN2C(=O)COc3ccccc32)cc1,inactive: 20.1%,–
CCOC(=O)C1=C(C)NC(=S)NC1c1ccc(C)s1 (centres undefined),inactive: 16.4%,–
COc1ccc(C(=O)NC(=S)NNC(=O)c2c(-c3ccccc3)noc2C)cc1OC,–,active: 12.6 µM
COCCNC(=O)c1cccc2c(-c3cnn(C)c3)coc12,inactive: 3.21%,–
CC1(C)Cc2c(c(-c3ccccc3)[nH]c(=O)c2C#N)CO1,inactive: 1.69%,–
CCOC(=O)c1ccc(NC(=S)NCCCn2ccnc2)cc1,inactive: 2.83%,–
COc1ccc(N(CC(=O)N2CCN(c3ccc(F)cc3)CC2)S(=O)(=O)c2c(C)n[nH]c2C)cc1,inactive: -0.768%,–
OC(C#CCN1CCCC1)(c1ccccc1)c1ccccc1,inactive: 15.6%,–
O=C(O)c1ccc2c(c1)C(=O)N(c1cccc(-c3nc4ccccc4s3)c1)C2=O,inactive: 4.55%,–
O=C(Nc1ccccc1C(=O)N/N=C/c1ccncc1)c1ccccc1,inactive: -76.8%,–
C=CCNc1nc2cc(-c3ccccc3OC)sc2c(=O)n1C,inactive: 28.4%,–
COc1ccc(C(=O)COC(=O)CCN2C(=O)C3CC=CCC3C2=O)c(OC)c1 (centres undefined),inactive: 2.34%,–
O=C(N/N=C/c1cccs1)c1n[nH]c2c1CCC2,inactive: -5.59%,–
CSc1ncccc1C(=O)OCCCC(=O)c1ccc(F)cc1,inactive: 8.96%,–

Compound,growth rescue (activation),Potency
OC(c1ccc(Cl)cc1)C(CN1CCOCC1)c1ccccc1 (centres undefined),inactive: -3.53%,–
COc1ccc(Cl)cc1NC(=S)Nc1ccc(Cl)cn1,inactive: 3.08%,–
CSc1ncc(CN2CCN(CCC(C)C)C(CCO)C2)cn1 (centres undefined),inactive: -7.99%,–
Cc1nonc1CN(C)C(=O)CC1C(=O)NCCN1Cc1ccc(F)c(F)c1 (centres undefined),inactive: -3.01%,–
Cc1nc([N+](=O)[O-])c(C(=O)O)n1C,inactive: 4.86%,–
CC(Oc1ccccc1)c1ccnc2nc(N3CCOCC3)nn12 (centres undefined),inactive: 6.34%,–
Cc1ccc(C(=O)c2ccccc2C(=O)OCC(=O)N2CCCC2)cc1,inactive: 1.92%,–
COc1ccc(-n2nc(C(=O)NCC(=O)Nc3cc(OC)c(OC)c(OC)c3)c3ccccc3c2=O)cc1OC,inactive: 18.8%,–
CCCCC(=O)Nc1ccccc1C(=O)OCC(=O)c1ccc2c(c1)OCCO2,inactive: 10.9%,–
COc1ccc(OC)c(-c2cc(C(=O)N3CCOCC3)no2)c1,inactive: 17%,–
CCN(CC)c1ccc(S(=O)(=O)Nc2cc(Cl)ccc2Cl)cc1NC(=S)NC(=O)C1CCCC1,inactive: 19.4%,–
CCOc1ccc(Br)cc1C(=O)N/N=C/c1ccc([N+](=O)[O-])cc1,inactive: -2.5%,–
Cc1ccc(NC(=O)Nc2ccc(F)cc2)cc1Cl,inactive: -5.35%,–
CCOC(=O)N/N=C\C=C\c1ccco1,inactive: 2.82%,–
O=C(NCC1CCCCC1)c1cccc(Br)c1,inactive: 14.8%,–
O=C(Cc1ccc([N+](=O)[O-])cc1)OCc1ccc([N+](=O)[O-])cc1,inactive: 11.6%,–
CC(=O)Nc1cccc(Oc2nc(NCC3CC3)nc3ccsc23)c1,inactive: 9.57%,–
OCc1cccc(-c2csc(C(O)c3ccco3)n2)c1 (centres undefined),inactive: 11.6%,–
O=C(Cc1ccc(Br)cc1)NNC(=O)c1cccs1,inactive: 4.35%,–
Cc1cccnc1C(NC(=O)C1CCN(CCOc2ccc(F)cc2)CC1)c1ccc(Cl)cc1 (centres undefined),inactive: -1.15%,–
CCN(c1ccccc1)S(=O)(=O)c1ccc(C(=O)N(C)CCc2ccc(OC)c(OC)c2)cc1,inactive: 4.45%,–
CCC(Sc1nc(N)cc(=O)[nH]1)C(=O)NC(C(=O)OC)c1ccccc1 (centres undefined),inactive: 10.8%,–
Cc1sc2c(c1C)C(=O)NC(c1ccccc1F)N2 (centres undefined),inactive: -7.67%,–
Cn1/c(=N/NC(=O)c2ccccc2F)sc2ccccc21,inactive: -3.81%,–
COc1ccc(N2C(=O)C(CC(=O)O)S/C2=N\N=C\c2cccs2)cc1 (centres undefined),inactive: -1.79%,–
Cc1ccc(N(C(=O)Cn2nnc3ccccc32)C(C(=O)NCc2ccccc2)c2ccccn2)cc1 (centres undefined),inactive: 7.88%,–
Cc1cccc(CSc2nc3c(c(-c4cccs4)c2C#N)CN(C)CC3)c1,inactive: 4.14%,–
